T1: recombinant human CD122 extracellular domain, C-terminal poly-histidine tagged (human, UniProt P14784 27-240)
T1 construct: also called CD122/IL-2Rβ; IL-2Rβ
T1 sequence: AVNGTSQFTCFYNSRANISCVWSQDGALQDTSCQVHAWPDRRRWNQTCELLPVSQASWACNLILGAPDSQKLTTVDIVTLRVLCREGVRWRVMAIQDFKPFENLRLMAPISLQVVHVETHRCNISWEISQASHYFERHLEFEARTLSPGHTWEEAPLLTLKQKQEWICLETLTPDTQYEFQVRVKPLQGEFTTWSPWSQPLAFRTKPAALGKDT

T2: recombinant human CD25 extracellular domain, C-terminal poly-histidine tagged (human, UniProt P01589 22-240)
T2 construct: also called CD25/IL-2Rα; IL-2Rα
T2 sequence: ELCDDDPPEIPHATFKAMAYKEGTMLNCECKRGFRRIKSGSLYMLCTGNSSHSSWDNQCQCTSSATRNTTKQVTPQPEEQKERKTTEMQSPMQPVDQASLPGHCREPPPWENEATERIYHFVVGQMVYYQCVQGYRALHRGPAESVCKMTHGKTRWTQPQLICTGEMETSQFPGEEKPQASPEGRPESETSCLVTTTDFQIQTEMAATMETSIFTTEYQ


Assays:
[1] = molecular target: T1, recombinant human CD122 extracellular …; assay: BLI (Octet)
[2] = molecular target: T2, recombinant human CD25 extracellular …; assay: BLI (Octet)

Binder | binding result [1] | Kd [2] | koff [2] | kon [2] | Kd [1] | koff [1] | kon [1]
1H3-hIgG1-L6-hIL-2 (L19A) (other, Built as m13) heavy: EVQLVESGGGLVQPGRSLKLSCAVSGFTFSDYAMAWVRQAPKKGLEWVATISYDGSRTYYRDSVKGRFTISRDNAKITLYLQMDSLRSEDTATYYCARHGSGYFDYWGQGVMVTVSS[not shown - about 450 residues with a human IgG1 Fc and changes] light: DTVLTQSPALAVSPGERVTISCRASESVRTGVHWYQQKPGQQPKLLIYGASNLESGVPARFSGSGSGTDFTLTIDPVEADDTATYFCQQSWNDPFTFGSGTKLEIKRTVAAPSVFIFPPSDEQLKSGTASVVCLLNNFYPREAKVQWKVDNALQSGNSQESVTEQDSKDSTYSLSSTLTLSKADYEKHKVYACEVTHQGLSSPVTKSFNRGEC | – | 1.76 nM | 0.000357 s⁻¹ | 203000 M⁻¹ s⁻¹ | 10.3 nM | 0.00487 s⁻¹ | 472000 M⁻¹ s⁻¹
1H3-hIgG1-L6-hIL-2 (K43A) (other, Built as m13) heavy: EVQLVESGGGLVQPGRSLKLSCAVSGFTFSDYAMAWVRQAPKKGLEWVATISYDGSRTYYRDSVKGRFTISRDNAKITLYLQMDSLRSEDTATYYCARHGSGYFDYWGQGVMVTVSS[not shown - about 450 residues with a human IgG1 Fc and changes] light: DTVLTQSPALAVSPGERVTISCRASESVRTGVHWYQQKPGQQPKLLIYGASNLESGVPARFSGSGSGTDFTLTIDPVEADDTATYFCQQSWNDPFTFGSGTKLEIKRTVAAPSVFIFPPSDEQLKSGTASVVCLLNNFYPREAKVQWKVDNALQSGNSQESVTEQDSKDSTYSLSSTLTLSKADYEKHKVYACEVTHQGLSSPVTKSFNRGEC | – | 4.79 nM | 0.00124 s⁻¹ | 259000 M⁻¹ s⁻¹ | 10.3 nM | 0.00294 s⁻¹ | 285000 M⁻¹ s⁻¹
1H3-hIgG1-L6-hIL-2 (I92E) (other, Built as m13) heavy: EVQLVESGGGLVQPGRSLKLSCAVSGFTFSDYAMAWVRQAPKKGLEWVATISYDGSRTYYRDSVKGRFTISRDNAKITLYLQMDSLRSEDTATYYCARHGSGYFDYWGQGVMVTVSS[not shown - about 450 residues with a human IgG1 Fc and changes] light: DTVLTQSPALAVSPGERVTISCRASESVRTGVHWYQQKPGQQPKLLIYGASNLESGVPARFSGSGSGTDFTLTIDPVEADDTATYFCQQSWNDPFTFGSGTKLEIKRTVAAPSVFIFPPSDEQLKSGTASVVCLLNNFYPREAKVQWKVDNALQSGNSQESVTEQDSKDSTYSLSSTLTLSKADYEKHKVYACEVTHQGLSSPVTKSFNRGEC | – | 2.41 nM | 0.000206 s⁻¹ | 85400 M⁻¹ s⁻¹ | 1.62 nM | 0.00151 s⁻¹ | 933000 M⁻¹ s⁻¹
1H3-hIgG1-L6-hIL-2 (R38A) (other, Built as m13) heavy: EVQLVESGGGLVQPGRSLKLSCAVSGFTFSDYAMAWVRQAPKKGLEWVATISYDGSRTYYRDSVKGRFTISRDNAKITLYLQMDSLRSEDTATYYCARHGSGYFDYWGQGVMVTVSS[not shown - about 450 residues with a human IgG1 Fc and changes] light: DTVLTQSPALAVSPGERVTISCRASESVRTGVHWYQQKPGQQPKLLIYGASNLESGVPARFSGSGSGTDFTLTIDPVEADDTATYFCQQSWNDPFTFGSGTKLEIKRTVAAPSVFIFPPSDEQLKSGTASVVCLLNNFYPREAKVQWKVDNALQSGNSQESVTEQDSKDSTYSLSSTLTLSKADYEKHKVYACEVTHQGLSSPVTKSFNRGEC | – | 5.55 nM | 0.00101 s⁻¹ | 182000 M⁻¹ s⁻¹ | 13.8 nM | 0.00287 s⁻¹ | 208000 M⁻¹ s⁻¹

The next lines start with the values.

binding result [1] | Kd [2] | koff [2] | kon [2] | Kd [1] | koff [1] | kon [1] | Binder
no binding (tested: 300 nM) | 7.94 nM | 0.000393 s⁻¹ | 49500 M⁻¹ s⁻¹ | – | – | – | 1H3-hIgG1-L6-hIL-2 (I92D) (other, Built as m13) heavy: EVQLVESGGGLVQPGRSLKLSCAVSGFTFSDYAMAWVRQAPKKGLEWVATISYDGSRTYYRDSVKGRFTISRDNAKITLYLQMDSLRSEDTATYYCARHGSGYFDYWGQGVMVTVSS[not shown - about 450 residues with a human IgG1 Fc and changes] light: DTVLTQSPALAVSPGERVTISCRASESVRTGVHWYQQKPGQQPKLLIYGASNLESGVPARFSGSGSGTDFTLTIDPVEADDTATYFCQQSWNDPFTFGSGTKLEIKRTVAAPSVFIFPPSDEQLKSGTASVVCLLNNFYPREAKVQWKVDNALQSGNSQESVTEQDSKDSTYSLSSTLTLSKADYEKHKVYACEVTHQGLSSPVTKSFNRGEC
no binding (tested: 300 nM) | 2.54 nM | 0.000276 s⁻¹ | 108000 M⁻¹ s⁻¹ | – | – | – | 1H3-hIgG1-L6-hIL-2 (I92R) (other, Built as m13) heavy: EVQLVESGGGLVQPGRSLKLSCAVSGFTFSDYAMAWVRQAPKKGLEWVATISYDGSRTYYRDSVKGRFTISRDNAKITLYLQMDSLRSEDTATYYCARHGSGYFDYWGQGVMVTVSS[not shown - about 450 residues with a human IgG1 Fc and changes] light: DTVLTQSPALAVSPGERVTISCRASESVRTGVHWYQQKPGQQPKLLIYGASNLESGVPARFSGSGSGTDFTLTIDPVEADDTATYFCQQSWNDPFTFGSGTKLEIKRTVAAPSVFIFPPSDEQLKSGTASVVCLLNNFYPREAKVQWKVDNALQSGNSQESVTEQDSKDSTYSLSSTLTLSKADYEKHKVYACEVTHQGLSSPVTKSFNRGEC

From patent US20240076343A1 (CEPHALON, published 2024)
